# Test results from US20080132536A1, “PYRAZOLO [3,4-B] PYRIDINE COMPOUNDS, AND THEIR USE AS PDE4 INHIBITORS” (Glaxo Group Limited, priority 2003, published 2008).
# Some entries share one result that the patent states for a list of compounds.
# Target: T1, PDE4B (human recombinant) (Homo sapiens, UniProt Q07343)
# T1 construct: made in house
# Assay: PDE4B inhibition, radioactive SPA and/or IMAP fluorescence polarisation (FP) assay
# Assay type: biochemical
# Details: one reading or average of several (ca. 2-6) readings, range given for a group of Examples
# Excerpt: Human recombinant PDE4B, in particular the 2B splice variant thereof (HSPDE4B2B), is disclosed in WO 94/20079 and also M. M. McLaughlin et al., “A low Km, rolipram-sensitive, cAMP-specific phosphodiesterase from human brain: cloning and expression of cDNA, biochemical characterisation of recombinant protein, and tissue distribution of mRNA”, J. Biol. Chem., 1993, 268, 6470-6476. For example, in Example 1 of WO 94/20079, human recombinant PDE4B is described as being expressed in the PDE-deficient yeast Saccharomyces cerevisiae strain GL62, e.g. after induction by addition of 150 uM CuSO4, and 100,000×g supernatant fractions of yeast cell lysates are described for use in the harvesting of PDE4B enzyme.
# The ability of compounds to inhibit catalytic activity at PDE4B or 4D (human recombinant), PDE3 (from bovine aorta), PDE5 (human recombinant) or PDE6 (from bovine retina) can optionally be determined by Scintillation Proximity Assay (SPA) in 96-well format.
# Test compounds (as a solution in DMSO, preferably about 2 microlitre (ul) volume of DMSO solution) are preincubated at ambient temperature (room temperature, e.g. 19-23° C.) in Wallac Isoplates (code 1450-514) with PDE enzyme in 50 mM Tris-HCl buffer pH 7.5, 8.3 mM MgCl2, 1.7 mM EGTA, 0.05% (w/v) bovine serum albumin for 10-30 minutes (usually 30 minutes). The enzyme concentration is adjusted so that no more than 20% hydrolysis of the substrate defined below occurs in control wells without compound, during the incubation. For the PDE3, PDE4B and PDE4D assays, [5′,8-3H]Adenosine 3′,5′-cyclic phosphate (Amersham Pharmacia Biotech, code TRK.559; or Amersham Biosciences UK Ltd, Pollards Wood, Chalfont St Giles, Buckinghamshire HP8 4SP, UK) is added to give 0.05 uCi per well and about 10 nM final concentration. For the PDE5 and PDE6 assays, [8-^3H]Guanosine 3′,5′-cyclic phosphate (Amersham Pharmacia Biotech, code TRK.392) is added to give 0.05 uCi per well and about 36 nM final concentration. Plates containing assay mixture, preferably approx. 100 ul volume of assay mixture, are mixed on an orbital shaker for 5 minutes and incubated at ambient temperature for 1 hour. Phosphodiesterase SPA beads (Amersham Pharmacia Biotech, code RPNQ 0150) are added (about 1 mg per well) to terminate the assay. Plates are sealed and shaken and allowed to stand at ambient temperature for 35 minutes to 1 hour (preferably 35 minutes) to allow the beads to settle. Bound radioactive product is measured using a WALLAC TRILUX 1450 Microbeta scintillation counter. For inhibition curves, 10 concentrations (1.5 nM-30 uM) of each compound are assayed. Curves are analysed using ActivityBase and XLfit (ID Business Solutions Limited, 2 Ocean Court, Surrey Research Park, Guildford, Surrey GU2 7QB, United Kingdom) Results are expressed as pIC50 values.
# The ability of compounds to inhibit catalytic activity at PDE4B (human recombinant) or PDE4D (human recombinant) can optionally be determined by IMAP Fluorescence Polarisation (FP) assay (IMAP Explorer kit, available from Molecular Devices Corporation, Sunnydale, Calif., USA; Molecular Devices code: R8062) in 384-well format.
# The IMAP FP assay is able to measure PDE activity in an homogenous, non-radioactive assay format. The FP assay uses the ability of immobilised trivalent metal cations, coated onto nanoparticles (tiny beads), to bind the phosphate group of Fl-AMP that is produced on the hydrolysis of fluorescein-labelled (Fl) cyclic adenosine mono-phosphate (Fl-cAMP) to the non-cyclic Fl-AMP form. […] Binding of Fl-AMP product to the beads (coated with the immobilised trivalent cations) slows the rotation of the bound Fl-AMP and leads to an increase in the fluorescence polarisation ratio of parallel to perpendicular light. Inhibition of the PDE reduces/inhibits this signal increase. […]
# T1 sequence (Q07343 1-564 isoform Q07343-2): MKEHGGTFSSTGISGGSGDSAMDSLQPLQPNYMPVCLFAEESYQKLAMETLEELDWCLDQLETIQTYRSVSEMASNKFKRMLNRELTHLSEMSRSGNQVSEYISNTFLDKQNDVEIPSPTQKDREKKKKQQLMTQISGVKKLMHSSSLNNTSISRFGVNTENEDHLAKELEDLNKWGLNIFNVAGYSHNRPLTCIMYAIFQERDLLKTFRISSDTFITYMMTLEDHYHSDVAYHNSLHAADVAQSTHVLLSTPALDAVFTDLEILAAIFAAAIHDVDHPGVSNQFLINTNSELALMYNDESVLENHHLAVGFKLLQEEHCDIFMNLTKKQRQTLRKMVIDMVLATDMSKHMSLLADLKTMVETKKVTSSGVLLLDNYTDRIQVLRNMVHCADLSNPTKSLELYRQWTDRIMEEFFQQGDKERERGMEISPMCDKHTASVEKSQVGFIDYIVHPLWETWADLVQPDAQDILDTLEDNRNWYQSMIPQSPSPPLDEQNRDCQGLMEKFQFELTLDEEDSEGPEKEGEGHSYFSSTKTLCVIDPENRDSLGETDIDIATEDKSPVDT
row,SMILES,PDE4B pIC50 (±about 0.5)
1,"CC[C@@H](NC(=O)c1cnc2c(cnn2CC)c1NC1CCOCC1)c1ccc(C)cc1 [Example 321, 1-ethyl-N-[(1R)-1-(4-methylphenyl)propyl]-4-(tetrahydro-2H-pyran-4-ylamino)-1H-pyrazolo[3,4-b]pyridine-5-carboxamide]",9.0 to 10.1
2,"CCc1ccc([C@@H](CC)NC(=O)c2cnc3c(cnn3CC)c2NC2CCOCC2)cc1 [Example 322, 1-ethyl-N-[(1R)-1-(4-ethylphenyl)propyl]-4-(tetrahydro-2H-pyran-4-ylamino)-1H-pyrazolo[3,4-b]pyridine-5-carboxamide]",9.0 to 10.1
3,"CC[C@@H](NC(=O)c1cnc2c(cnn2CC)c1NC1CCOCC1)c1ccc(C(C)C)cc1 [Example 323, 1-ethyl-N-{(1R)-1-[4-(1-methylethyl)phenyl]propyl}-4-(tetrahydro-2H-pyran-4-ylamino)-1H-pyrazolo[3,4-b]pyridine-5-carboxamide]",9.0 to 10.1
4,"CC[C@@H](NC(=O)c1cnc2c(cnn2CC)c1NC1CCOCC1)c1ccc(Cl)cc1F [Example 324, N-[(1R)-1-(4-chloro-2-fluorophenyl)propyl]-1-ethyl-4-(tetrahydro-2H-pyran-4-ylamino)-1H-pyrazolo[3,4-b]pyridine-5-carboxamide]",9.0 to 10.1
5,"CC[C@@H](NC(=O)c1cnc2c(cnn2CC)c1NC1CCOCC1)c1c(C)cccc1C [Example 325, N-[(1R)-1-(2,6-dimethylphenyl)propyl]-1-ethyl-4-(tetrahydro-2H-pyran-4-ylamino)-1H-pyrazolo[3,4-b]pyridine-5-carboxamide]",9.0 to 10.1
6,"CC[C@@H](NC(=O)c1cnc2c(cnn2CC)c1NC1CCOCC1)c1cc(C)ccc1C [Example 326, N-[(1R)-1-(2,5-dimethylphenyl)propyl]-1-ethyl-4-(tetrahydro-2H-pyran-4-ylamino)-1H-pyrazolo[3,4-b]pyridine-5-carboxamide]",9.0 to 10.1
7,"CCc1ccccc1[C@@H](CC)NC(=O)c1cnc2c(cnn2CC)c1NC1CCOCC1 [Example 327, 1-ethyl-N-[(1R)-1-(2-ethylphenyl)propyl]-4-(tetrahydro-2H-pyran-4-ylamino)-1H-pyrazolo[3,4-b]pyridine-5-carboxamide]",9.0 to 10.1
8,"CC[C@@H](NC(=O)c1cnc2c(cnn2CC)c1NC1CCOCC1)c1c(C)cc(C)cc1C [Example 328, 1-ethyl-4-(tetrahydro-2H-pyran-4-ylamino)-N-[(1R)-1-(2,4,6-trimethylphenyl)propyl]-1H-pyrazolo[3,4-b]pyridine-5-carboxamide]",9.0 to 10.1
9,"CCn1ncc2c(NC3CCN(C(N)=O)CC3)c(C(=O)N[C@H](C)c3cc(C)ccc3C)cnc21 [Example 329, 4-{[1-(aminocarbonyl)-4-piperidinyl]amino}-N-[(1R)-1-(2,5-dimethylphenyl)ethyl]-1-ethyl-1H-pyrazolo[3,4-b]pyridine-5-carboxamide]",9.0 to 10.1
10,"CCc1ccc([C@@H](C)NC(=O)c2cnc3c(cnn3CC)c2NC2CCN(C(N)=O)CC2)cc1 [Example 330, 4-{[1-(aminocarbonyl)-4-piperidinyl]amino}-1-ethyl-N-[(1R)-1-(4-ethylphenyl)ethyl]-1H-pyrazolo[3,4-b]pyridine-5-carboxamide]",9.0 to 10.1
11,"CCc1ccccc1[C@@H](C)NC(=O)c1cnc2c(cnn2CC)c1NC1CCN(C(N)=O)CC1 [Example 331, 4-{[1-(aminocarbonyl)-4-piperidinyl]amino}-1-ethyl-N-[(1R)-1-(2-ethylphenyl)ethyl]-1H-pyrazolo[3,4-b]pyridine-5-carboxamide]",9.0 to 10.1
12,"CCn1ncc2c(NC3CCN(C(N)=O)CC3)c(C(=O)N[C@H](C)c3c(C)cc(C)cc3C)cnc21 [Example 332, 4-{[1-(aminocarbonyl)-4-piperidinyl]amino}-1-ethyl-N-[(1R)-1-(2,4,6-trimethylphenyl)ethyl]-1H-pyrazolo[3,4-b]pyridine-5-carboxamide]",9.0 to 10.1
13,"CC[C@@H](NC(=O)c1cnc2c(cnn2CC)c1NC1CCN(C(N)=O)CC1)c1ccc(C)cc1C [Example 333, 4-{[1-(aminocarbonyl)-4-piperidinyl]amino}-N-[(1R)-1-(2,4-dimethylphenyl)propyl]-1-ethyl-1H-pyrazolo[3,4-b]pyridine-5-carboxamide]",9.0 to 10.1
14,"CCn1ncc2c(NC3CCN(C(N)=O)CC3)c(C(=O)NC(C)c3ccc(Cl)cc3)cnc21 (stereo not shown) [Example 334, 4-{[1-(aminocarbonyl)-4-piperidinyl]amino}-N-[1-(4-chlorophenyl)ethyl]-1-ethyl-1H-pyrazolo[3,4-b]pyridine-5-carboxamide]",9.0 to 10.1
15,"CC[C@@H](NC(=O)c1cnc2c(cnn2CC)c1NC1CCN(C(N)=O)CC1)c1ccccc1 [Example 335, 4-{[1-(aminocarbonyl)-4-piperidinyl]amino}-1-ethyl-N-[(1R)-1-phenylpropyl]-1H-pyrazolo[3,4-b]pyridine-5-carboxamide]",9.0 to 10.1
16,"CCC(NC(=O)c1cnc2c(cnn2CC)c1NC1CCN(C(N)=O)CC1)c1ccc(Cl)cc1 (stereo not shown) [Example 336, 4-{[1-(aminocarbonyl)-4-piperidinyl]amino}-N-[1-(4-chlorophenyl)propyl]-1-ethyl-1H-pyrazolo[3,4-b]pyridine-5-carboxamide]",9.0 to 10.1
17,"CCC(NC(=O)c1cnc2c(cnn2CC)c1NC1CCN(C(N)=O)CC1)c1ccc(F)cc1 (stereo not shown) [Example 337, 4-{[1-(aminocarbonyl)-4-piperidinyl]amino}-1-ethyl-N-[1-(4-fluorophenyl)propyl]-1H-pyrazolo[3,4-b]pyridine-5-carboxamide]",9.0 to 10.1
18,"CC[C@@H](NC(=O)c1cnc2c(cnn2CC)c1NC1CCN(C(N)=O)CC1)c1ccc(C)cc1 [Example 338, 4-{[1-(aminocarbonyl)-4-piperidinyl]amino}-1-ethyl-N-[(1R)-1-(4-methylphenyl)propyl]-1H-pyrazolo[3,4-b]pyridine-5-carboxamide]",9.0 to 10.1
19,"CCc1ccc([C@@H](CC)NC(=O)c2cnc3c(cnn3CC)c2NC2CCN(C(N)=O)CC2)cc1 [Example 339, 4-{[1-(aminocarbonyl)-4-piperidinyl]amino}-1-ethyl-N-[(1R)-1-(4-ethylphenyl)propyl]-1H-pyrazolo[3,4-b]pyridine-5-carboxamide]",9.0 to 10.1
20,"CC[C@@H](NC(=O)c1cnc2c(cnn2CC)c1NC1CCN(C(N)=O)CC1)c1ccc(C(C)C)cc1 [Example 340, 4-{[1-(aminocarbonyl)-4-piperidinyl]amino}-1-ethyl-N-{(1R)-1-[4-(1-methylethyl)phenyl]propyl}-1H-pyrazolo[3,4-b]pyridine-5-carboxamide]",9.0 to 10.1
21,"CC[C@@H](NC(=O)c1cnc2c(cnn2CC)c1NC1CCN(C(N)=O)CC1)c1ccc(Cl)cc1F [Example 341, 4-{[1-(aminocarbonyl)-4-piperidinyl]amino}-N-[(1R)-1-(4-chloro-2-fluorophenyl)propyl]-1-ethyl-1H-pyrazolo[3,4-b]pyridine-5-carboxamide]",9.0 to 10.1
22,"CC[C@@H](NC(=O)c1cnc2c(cnn2CC)c1NC1CCN(C(N)=O)CC1)c1c(C)cccc1C [Example 342, 4-{[1-(aminocarbonyl)-4-piperidinyl]amino}-N-[(1R)-1-(2,6-dimethylphenyl)propyl]-1-ethyl-1H-pyrazolo[3,4-b]pyridine-5-carboxamide]",9.0 to 10.1
